{"source": "paper PMC4336329", "about": "(PLoS ONE, 2015)", "note": "In all, about 310,000 compounds went through this assay and about 14,000 (4.5%) showed an effect of 50% or more. Effects have a minus sign here. This is one part of the list.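 Further: peak tail current of the secondary pulse compared with the same well before compound.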"}
{"target": "human ether-à-go-go-related gene (hERG) potassium channel (human, UniProt Q12809)", "sequence (Q12809 whole entry, looked up)": "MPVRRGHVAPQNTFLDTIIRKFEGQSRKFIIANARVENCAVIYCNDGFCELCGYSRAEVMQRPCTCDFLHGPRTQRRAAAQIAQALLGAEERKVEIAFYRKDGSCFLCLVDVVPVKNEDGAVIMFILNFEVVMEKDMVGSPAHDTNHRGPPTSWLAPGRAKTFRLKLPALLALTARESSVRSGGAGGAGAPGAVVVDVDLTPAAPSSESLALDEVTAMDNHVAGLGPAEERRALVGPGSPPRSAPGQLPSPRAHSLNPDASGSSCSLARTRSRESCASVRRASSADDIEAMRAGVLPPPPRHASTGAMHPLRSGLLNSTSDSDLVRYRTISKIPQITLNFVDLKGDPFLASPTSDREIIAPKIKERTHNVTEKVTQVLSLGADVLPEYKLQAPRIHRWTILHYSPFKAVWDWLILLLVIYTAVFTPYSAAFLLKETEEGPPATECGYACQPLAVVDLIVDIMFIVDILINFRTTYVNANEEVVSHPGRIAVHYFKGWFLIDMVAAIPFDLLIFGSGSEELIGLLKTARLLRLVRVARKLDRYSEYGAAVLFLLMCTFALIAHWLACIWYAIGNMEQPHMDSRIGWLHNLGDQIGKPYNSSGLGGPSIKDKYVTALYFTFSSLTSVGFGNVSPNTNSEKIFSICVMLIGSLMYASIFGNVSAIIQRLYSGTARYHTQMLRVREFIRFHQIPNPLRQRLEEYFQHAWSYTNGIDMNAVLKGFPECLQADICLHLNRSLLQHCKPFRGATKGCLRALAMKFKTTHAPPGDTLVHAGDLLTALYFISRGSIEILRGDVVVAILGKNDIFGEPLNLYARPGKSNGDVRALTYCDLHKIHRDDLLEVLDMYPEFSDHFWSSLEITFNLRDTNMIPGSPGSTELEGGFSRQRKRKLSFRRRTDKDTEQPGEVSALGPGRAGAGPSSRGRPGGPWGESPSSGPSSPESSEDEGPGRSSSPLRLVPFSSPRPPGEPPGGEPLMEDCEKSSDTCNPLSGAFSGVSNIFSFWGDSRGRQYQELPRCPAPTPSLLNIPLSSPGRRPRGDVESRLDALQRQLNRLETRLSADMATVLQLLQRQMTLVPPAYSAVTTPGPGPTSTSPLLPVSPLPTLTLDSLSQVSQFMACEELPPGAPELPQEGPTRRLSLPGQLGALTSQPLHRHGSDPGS", "assay": "primary screen, population patch clamp on CHO cells stably expressing hERG", "units": {"hERG current change (%, negative = inhibition) at 10uM": "%"}}
{"smiles": "CCCc1ccc2oc(C(=O)N3CCN(CC(=O)NC(C)C)CC3)c(C)c2c1", "hERG current change (%, negative = inhibition) at 10uM": -26.3}
{"smiles": "Cc1[nH]c(=O)c(C(=O)/C=C/c2ccccc2)c2c1CCCC2", "hERG current change (%, negative = inhibition) at 10uM": -8.03}
{"smiles": "COc1cc(OC)cc(C(=O)Nc2ccc3c(c2)COC3=O)c1", "hERG current change (%, negative = inhibition) at 10uM": -4.75}
{"smiles": "O=C(c1ccc(F)cc1)N1CCC(C(=O)N(Cc2ccccc2)c2ccccc2)CC1", "hERG current change (%, negative = inhibition) at 10uM": -16.6}
{"smiles": "Cc1ccc(C(=O)CS(C)(=O)=O)cc1", "hERG current change (%, negative = inhibition) at 10uM": 12}
{"smiles": "CCCc1cc(=O)[nH]c(SCC(=O)c2cc(C)n(-c3cc(C)on3)c2C)n1", "hERG current change (%, negative = inhibition) at 10uM": -6.65}
{"smiles": "Cc1cc(N2CCN(C)CC2)nc2ccc(NC(=O)c3cccnc3Cl)cc12", "hERG current change (%, negative = inhibition) at 10uM": -2.54}
{"smiles": "C=CCSc1nnc2c(n1)OC(C)=Nc1ccc(Br)cc1-2", "hERG current change (%, negative = inhibition) at 10uM": 18.7}
{"smiles": "N/C(=N\\OC(=O)c1cccs1)c1cccc(Br)c1", "hERG current change (%, negative = inhibition) at 10uM": 10.2}
{"smiles": "CC(=O)OCCN(C)c1cc(SC(C)C)c2nonc2c1[N+](=O)[O-]", "hERG current change (%, negative = inhibition) at 10uM": -30.4}
{"smiles": "COc1ccccc1OC(C)C(=O)Nc1ccccc1C(=O)NCC1CCCO1", "note": "(stereo not shown)", "hERG current change (%, negative = inhibition) at 10uM": 7.03}
{"smiles": "O=C(Cc1c(O)c2ccccc2[nH]c1=O)NCc1ccccc1", "hERG current change (%, negative = inhibition) at 10uM": 1.03}
{"smiles": "CC12CCC(=O)N1C(C(=O)Nc1ccc(S(=O)(=O)N3CCCCC3)cc1)CS2", "note": "(stereo not shown)", "hERG current change (%, negative = inhibition) at 10uM": -5.09}
{"smiles": "COc1ccc(C(=O)NC(=S)N2C[C@H]3C[C@H](C2)c2cccc(=O)n2C3)cc1", "hERG current change (%, negative = inhibition) at 10uM": 4.04}
{"smiles": "COc1ccc([C@@H]2C[C@H](c3ccccc3)Oc3cc(OC)c(OC)c(OC)c32)cc1", "hERG current change (%, negative = inhibition) at 10uM": 21.4}
{"smiles": "O=C(N/N=C/c1cccc([N+](=O)[O-])c1)C1CC(=O)N(c2ccc(F)cc2)C1", "note": "(stereo not shown)", "hERG current change (%, negative = inhibition) at 10uM": -65.8}
{"smiles": "Cc1noc(C)c1COC(=O)CCOc1ccccc1", "hERG current change (%, negative = inhibition) at 10uM": -8.56}
{"smiles": "Cc1ccc(/C(N)=N/OC(=O)Cc2cccs2)cc1", "hERG current change (%, negative = inhibition) at 10uM": 1.93}
{"smiles": "Cc1cc(OCC(=O)NCCc2cccc(F)c2)c2c(C)cc(=O)oc2c1", "hERG current change (%, negative = inhibition) at 10uM": -2.4}
{"smiles": "O=C(CC1CCCC1)NNC(=O)c1ccc(Br)cc1", "hERG current change (%, negative = inhibition) at 10uM": 2.16}
{"smiles": "CCOC(=O)C1=C(C)NC2=C(C(=O)c3ccccc32)C1c1ccc([N+](=O)[O-])o1", "note": "(stereo not shown)", "hERG current change (%, negative = inhibition) at 10uM": -4.77}
{"smiles": "C=CCSC1=N/C(=C/c2ccsc2)C(=O)N1c1ccccc1", "hERG current change (%, negative = inhibition) at 10uM": 13.2}
{"smiles": "CCN(CC)S(=O)(=O)c1cccc(-c2csc(C)n2)c1", "hERG current change (%, negative = inhibition) at 10uM": -1.57}
{"smiles": "COc1ccc(C2=NN(C(=O)CSc3nnc(C)c(=O)n3N)C(c3ccco3)C2)cc1", "note": "(stereo not shown)", "hERG current change (%, negative = inhibition) at 10uM": -42.8}
{"smiles": "CCCC1CCc2c(sc(N)c2C(N)=O)C1", "note": "(stereo not shown)", "hERG current change (%, negative = inhibition) at 10uM": -8.27}
{"smiles": "O=C(CN1C(=O)c2ccccc2C1=O)Nc1cccc(S(=O)(=O)Nc2ccccc2Cl)c1", "hERG current change (%, negative = inhibition) at 10uM": 19.9}
{"smiles": "O=C(O)c1cc(-c2ccc3c(c2)OCO3)nc2ccc(Cl)cc12", "hERG current change (%, negative = inhibition) at 10uM": 21.2}
{"smiles": "O=C(/C=C/c1ccc(Cl)c(Cl)c1)n1cccn1", "hERG current change (%, negative = inhibition) at 10uM": 2.98}
{"smiles": "Cc1ccc(/C=N\\NC(=O)c2cncc(Br)c2)o1", "hERG current change (%, negative = inhibition) at 10uM": 5.25}
{"smiles": "CCOC(=O)c1cnn(-c2nc(OC)cc(OC)n2)c1C(F)(F)F", "hERG current change (%, negative = inhibition) at 10uM": -6.9}
{"smiles": "Cc1cc(NCCCn2ccnc2)n2nc(C)c(-c3ccc(Cl)cc3)c2n1", "hERG current change (%, negative = inhibition) at 10uM": -71.8}
{"smiles": "CCN(CC)S(=O)(=O)c1cccc(C(=O)OCC(=O)c2ccc3c(c2)OCCO3)c1", "hERG current change (%, negative = inhibition) at 10uM": 12.4}
{"smiles": "O=C(CCCc1nc2ccccc2s1)Nc1ccccc1", "hERG current change (%, negative = inhibition) at 10uM": 5.03}
{"smiles": "Cc1ccc(S(=O)(=O)N2CCOCC2)cc1C(=O)NCc1cn2ccsc2n1", "hERG current change (%, negative = inhibition) at 10uM": 12.1}
{"smiles": "CN1CCN(C(=O)c2ccc(Cn3cc(Cl)cn3)o2)CC1.Cl", "hERG current change (%, negative = inhibition) at 10uM": 18.8}
{"smiles": "Cc1ccsc1C(=O)NCc1ccc(F)cc1", "hERG current change (%, negative = inhibition) at 10uM": 2.13}
{"smiles": "Cc1cc(OCC(=O)NCC(C)C)cc(C)c1Br", "hERG current change (%, negative = inhibition) at 10uM": 12}
{"smiles": "Cc1cccc(Nc2cc(=O)[nH]c(=O)[nH]2)c1", "hERG current change (%, negative = inhibition) at 10uM": 8.57}
{"smiles": "CCOC(=O)C1=C(C)N(CCCC(=O)O)C(=O)NC1c1cccc(OC)c1", "note": "(stereo not shown)", "hERG current change (%, negative = inhibition) at 10uM": -3.02}
{"smiles": "Cc1ccc(NC(=O)Cn2c(-c3ccc(F)cc3)cnc2SCC(=O)Nc2c(C)cccc2C)cc1", "hERG current change (%, negative = inhibition) at 10uM": 16}
{"smiles": "COc1ccccc1-c1c(C)nn2c(N3CCOCC3)cc(C)nc12", "hERG current change (%, negative = inhibition) at 10uM": 2.71}
{"smiles": "CC(C)Oc1ccc2c3c(c(=O)oc2c1)CCC3", "hERG current change (%, negative = inhibition) at 10uM": -14.2}
{"smiles": "CCCCn1c(SCC(=O)N2CC(C)CC(C)C2)nc2cc(S(N)(=O)=O)ccc21", "note": "(stereo not shown)", "hERG current change (%, negative = inhibition) at 10uM": 2.81}
{"smiles": "CCn1c(-c2ccc(OC)c(OC)c2)n[nH]c1=S", "hERG current change (%, negative = inhibition) at 10uM": 11.1}
{"smiles": "CC(C)C[C@H](NC(=O)c1nc[nH]c1C(=O)NCC(=O)OCc1ccccc1)C(=O)OC(C)(C)C", "hERG current change (%, negative = inhibition) at 10uM": -15.5}
{"smiles": "O=C1NC2NC(=O)N(C(Cc3ccccc3)C(=O)O)C2N1", "note": "(stereo not shown)", "hERG current change (%, negative = inhibition) at 10uM": -2.89}
{"smiles": "O/N=C(/c1ccccc1)c1cc2cc(Br)cc(Br)c2o1", "hERG current change (%, negative = inhibition) at 10uM": 15.8}
{"smiles": "CCCc1cnc(N2CCN(C(=O)c3c(-c4ccccc4)noc3C)CC2)nc1", "hERG current change (%, negative = inhibition) at 10uM": -24.5}
{"smiles": "O=C(COC(=O)CCSc1ccccc1)Nc1ccc(F)cc1Cl", "hERG current change (%, negative = inhibition) at 10uM": 6.44}
{"smiles": "Cc1ccc2c(c1)CCCN2C(=O)c1ccc2c(c1)OCO2", "hERG current change (%, negative = inhibition) at 10uM": -4.53}
{"smiles": "CC(=O)N1CCc2[nH]c3ccc(C)cc3c2C1", "hERG current change (%, negative = inhibition) at 10uM": -5.4}
{"smiles": "CCC(=NCCN1CCOCC1)c1c(O)n(-c2ccccc2C)c(=O)[nH]c1=O", "hERG current change (%, negative = inhibition) at 10uM": 17.3}
{"smiles": "COC(=O)C1=NN(C(C)=O)C2(CC(=O)N(c3cc(C)cc(C)c3)C2=O)C1", "note": "(stereo not shown)", "hERG current change (%, negative = inhibition) at 10uM": -18.4}
{"smiles": "CCNC(=S)NNC(=O)c1ccoc1C", "hERG current change (%, negative = inhibition) at 10uM": 8.97}
{"smiles": "Cc1nc2ccc(NC(=O)NCc3ccco3)cc2s1", "hERG current change (%, negative = inhibition) at 10uM": 20.8}
{"smiles": "O=C(c1nn2c(C(F)(F)F)cc(-c3ccccc3)nc2c1Cl)N1CCOCC1", "hERG current change (%, negative = inhibition) at 10uM": -9.9}
{"smiles": "CCN(CC)CCCNC(=O)c1sc2ncn(CC(=O)Nc3ccc(C)c(Cl)c3)c(=O)c2c1C", "hERG current change (%, negative = inhibition) at 10uM": -13}
{"smiles": "Cc1cc(C(=O)COC(=O)c2ccncc2)c(C)n1CCc1ccc(F)cc1", "hERG current change (%, negative = inhibition) at 10uM": 8.96}
